The structures appear in SMILES notation. In all, about 2,200 compounds went through this assay and fewer than 10 were called active. Some of the results follow. Where no call is shown, the source marks the result inconclusive.

The test addresses GTPase KRas (Homo sapiens) (UniProt P01116). As to the kind of experiment: Covalent labelling of cysteine mutants by fragments, read by mass spectrometry (AID 2202238). Also noted: protein at 5 µM with 500 µM competing thiol for 1.5 h. The following applies: KRAS G12D cysteine mutants, disulfide tethering, MALDI-TOF labeling; stronger effect = higher value; H27C mutant labeling; fragment at 500 µM.
Sequence of UniProt P01116 (P01116 whole entry, looked up, the tested form may be a part): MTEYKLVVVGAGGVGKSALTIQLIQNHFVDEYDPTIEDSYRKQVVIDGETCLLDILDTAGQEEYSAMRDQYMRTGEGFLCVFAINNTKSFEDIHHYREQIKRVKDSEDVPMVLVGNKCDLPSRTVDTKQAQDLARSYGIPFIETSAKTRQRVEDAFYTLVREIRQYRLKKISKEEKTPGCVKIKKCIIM
In turn, `Cc1nc2ccccc2n(CCNC(=O)CCS)c1=O` showed a percent labeling of 41.5%.
As for `COC(=O)c1ccc(CNC(=O)CCS)nc1C1CC1`, the figure is 44.4%; as for `Cc1c(C(=O)NCCS)[nH]c2cc(Cl)ccc12`, 23%.
In the case of `CCNC(=O)CN1CCN(C(=O)CCS)CC1` it was 25.2%; in that of `CNC(=O)c1cccc(OCC(=O)NCCS)c1`, 37.2%.
With `O=C(CCS)NCCNC(=O)c1cc2ccccc2[nH]1`, the percent labeling worked out at 36.7%.
As for `O=C(NCCS)C1(c2cccnc2)CC(F)(F)C1`, the figure is 39.6%; as for `O=C(CCCN1C(=O)c2ccccc2C1=O)NCCS`, 38.9%; as for `CN(C)C(C(=O)NCCS)c1cscn1` (configuration not stated), 32.2%.
In the case of `O=C(CCS)Nc1cccc(C(=O)Nc2ccc(Br)cn2)c1` it was 12.4%; in that of `CN1CCC(C(=O)NCCS)C(c2ccnn2C)C1` (configuration not stated), 42%; in that of `Cc1ccc(NC(=O)CCS)cc1-c1nnnn1C1CC1`, 50.1%.
As for `O=C(CCS)N1CCc2[nH]cc(I)c(=O)c2C1`, the figure is 37.2%; as for `NC(=O)Nc1cccc(NC(=O)CCS)c1`, 44.1%.
Regarding `CCn1ncc2cc(C(=O)NCCS)c(C)nc21`, the percent labeling is 44.5%.
As for `O=C(NCCS)c1nc(-c2ccccc2)ns1`, the figure is 32.7%; as for `Cc1cccnc1Oc1ccc(C(=O)NCCS)cc1`, 17%; as for `Cc1ccn(-c2cccc(C(=O)NCCS)c2)n1`, 40.1%.
As for `O=C(CCc1ccc(F)c2c1CCCC2)NCCS`, the figure is 20.4%; as for `Cc1ccc(C(=O)NCCS)cc1N1CCOCC1`, 47.4%.
As for `O=C(CCS)Nc1ccc(-n2cnnc2)nc1`, the figure is 28.7%.
With `CCCc1c(C(=O)NCCS)cnn1-c1ccccc1`, the percent labeling amounted to 39.1%.
In the case of `O=C(NCCS)c1nc2ccc(Br)cn2n1`, the percent labeling was determined as 50.2%.
In the case of `O=C(NCCS)c1ccc(-c2n[nH]c(C3CC3)n2)cc1` it was 39.1%; in that of `O=C(CCS)NCCn1cnc2sccc2c1=O`, 35.8%.
As for `C[C@@H]1CN(c2ccccn2)C[C@H]1C(=O)NCCS`, the figure is 43.2%.
As for `O=C(CCS)NCc1c2c(n[nH]c1=O)CCCC2`, the figure is 37.4%; as for `O=C(Cn1cnc2scc(-c3cccs3)c2c1=O)NCCS`, 25.5%; as for `CC(C)(C)OC(=O)N1CCC(C2CCN(C(=O)CCS)CC2)CC1`, 42.6%.
Compound `O=C(CCS)NCCN1CCN(c2ncccn2)CC1` came in with a percent labeling of 37.5%.
In the case of `O=C(NCCS)c1ccc2c(c1)nnn2CCc1ccccc1` it was 20.3%; in that of `O=C(CCS)NCc1cccc(N2CCCC2=O)c1`, 32.7%; in that of `O=C(NCCS)c1ncoc1CCC(F)(F)F`, 37.4%.
In the case of `O=C(NCCS)C1CCCN(C(=O)N2CCc3sccc3C2)C1` (configuration not stated) it was 26.9%.
In the case of `CC1(C)Cc2c(cnn2-c2ccccc2)CN(C(=O)CCS)C1` it was 42.4%; in that of `O=C(NCCS)c1ccn(CC(F)(F)F)c(=O)c1`, 35%.
In the case of `N#Cc1cnn(-c2cccc(C(=O)NCCS)c2)c1N`, the percent labeling was determined as 39.4%.
In the case of `O=C(CCNC(=O)c1cccc(Cl)c1)NCCS` it was 28.9%; in that of `O=C(NCCS)c1nc2ccccc2nc1C1CC1`, 19.9%; in that of `O=C(NCCS)c1c[nH]c(=O)c(C(F)(F)F)c1`, 40.8%.
As for `O=C(CCS)NCCNC(=O)c1cnccn1`, the figure is 25.3%.
As for `CC(C)c1nc(CCNC(=O)CCS)n(C)n1`, the figure is 24.1%; as for `O=C(NCCS)c1cc2ccccc2o1`, 42.1%; as for `O=C(NCCS)C1CC(O)c2cc(F)ccc2O1` (configuration not stated), 39.8%.
`CCCN1CCN(c2ccc(CN(C)C(=O)CCS)nn2)CC1`: the percent labeling is 41.8%.
As for `O=C(CCS)Nc1cc(C(F)(F)F)ccc1N1CCCC1`, the figure is 30.1%.
In the case of `Cc1c(CC(=O)NCCS)c(-c2ccccc2)nc2ccccc12` it was 30.1%.
As for `O=C(CCS)Nc1cccc(Br)c1`, the figure is 27.9%.
In the case of `CCC(CC)C(C(=O)NCCS)N1CCOCC1` (configuration not stated), the percent labeling was 31.9%.
In the case of `CN(Cc1ccn(C(F)F)n1)C(=O)CCS` it was 36.1%; in that of `CN(C)c1ccc(C(=O)NCCS)cc1`, 41.3%.
In the case of `CN1CCN(c2cc(CNC(=O)CCS)ccn2)CC1` it was 44.3%.
In the case of `Cc1nc2n(c(=O)c1CCNC(=O)CCS)CCCC2` it was 32.7%.
The compound `CC(C)c1oc(-c2ccccc2)nc1C(=O)NCCS` returned a percent labeling of 22.1%.
As for `O=C(CCS)Nc1cccc(OCCO)c1`, the figure is 47.1%; as for `O=C(Cc1cnc[nH]1)NCCS`, 26.5%.
In the case of `Cc1ccccc1C(C(=O)NCCS)C1CCCC1` (configuration not stated) it was 21.5%; in that of `CC1(C)Oc2ccc(NC(=O)CCS)cc2O1`, 39%; in that of `O=C(NCCS)c1cc2ccc(Br)cn2c1`, 13.5%.
As for `O=C(CCS)NC1CC(=O)N(Cc2ccccc2)C1` (configuration not stated), the figure is 35.1%.
`O=C(CCS)NC1CCC(CO)(CO)CC1` gave a percent labeling of 24.5%.
In the case of `O=C(NCCS)c1ccccc1-c1ncc[nH]1` it was 35%; in that of `O=C(CCS)Nc1cccc(-c2nc(C3CC3)no2)c1`, 33.3%.
In the case of `COc1cccc(-c2c[nH]cc2C(=O)NCCS)c1` it was 35.8%.
As for `O=C(NCCS)C1CCC(=O)N(CC(F)(F)F)C1` (configuration not stated), the figure is 35.4%; as for `COc1cc2nc(N3CCN(C(=O)CCS)CC3)nc(N)c2cc1OC`, 40.1%.
Compound `O=C(CCS)N1CCN(C(=O)c2ccc(F)cc2F)CC1` yielded a percent labeling of 48.8%.
`O=C(CCc1cc(Br)ccc1F)NCCS`: the percent labeling turned out to be 31%.
As for `Cn1cc(Br)c(C(=O)NCCS)cc1=O`, the figure is 36%; as for `Cc1ccc(C(=O)NCCS)c(Cl)n1`, 40.7%; as for `O=C(CCS)NCCc1nc(-c2ccccc2)no1`, 35.5%.
As for `Cc1nnnn1-c1cc(F)cc(C(=O)NCCS)c1`, the figure is 51.1%.

The values are drawn from PubChem BioAssay AID2202238 (Ras Initiative Chemistry Research Team, Frederick National …, 2025).
